Experimental findings from PubChem BioAssay AID463173 (ICCB-Longwood Screening Facility, Harvard Medical School, 2010) are described below.

Molecules are shown by their SMILES. The campaign covered roughly 52,000 compounds. About 1,700 (3.3%) were called active. Rule as the data show it: active = survival mostly below about 52% (no sharp cut-off); inactive = mostly above about 56%. The list shows a part of the results.

This assay concerns Wild type. Briefly: growth inhibition of S. aureus wild type versus tarO mutant, primary screen, teichoic acid synthesis inhibitors, RN4220, OD600 (AID 463173). Particulars: S. aureus RN4220 wild type/DeltatarO growth, OD600, 18 h, stronger effect = lower value, screened at 18.75 µg/mL (by protocol).
`COC(=O)c1c(NC(=O)c2cc(OC)c(OC)c(OC)c2Br)sc2c1CCC(C)C2` (stereo unspecified): the survival was inactive: 14%.
As for `COc1cc(C2c3c(-c4ccc(C)cc4)n[nH]c3C(=O)N2c2ccc(F)cc2)ccc1O` (stereo unspecified), the figure is inactive: 110%; as for `COc1ccc(CNC(=O)CCn2nc(C)c3c(C)n(-c4ccccc4)nc3c2=O)c(OC)c1`, inactive: 73%; as for `Cc1cccc(NC(=O)c2cc(S(=O)(=O)N3CCN(c4ccccc4F)CC3)ccc2F)c1C`, inactive: 72%.
As for `CNC(=O)Cn1c(=O)c2cccn2c2ccc(F)cc21`, the figure is inactive: 85%; as for `CC(C)CNc1ncnc2c1nnn2C`, inactive: 87%; as for `O=C(CCNS(=O)(=O)c1cccc2nsnc12)NCc1ccccc1`, inactive: 70%.
The figure for `COc1ccc(CNC(=O)c2ccc3nc(CCc4ccccc4)oc3c2)c(OC)c1` is inactive: 131%; for `COc1ccc(OC)c(C2C(C(=O)N3CCCCC3)=C(C)Nc3nc4ccccc4n32)c1` (stereo unspecified) it is inactive: 68%.
Consider `N#C/C(=C/c1cn(Cc2ccccc2Cl)c2ccccc12)C(=O)Nc1cccc(Cl)c1`, for which the survival is inactive: 104%.
With `COc1cc(NC(=O)N2CCC3(CC2)Nc2cc(F)ccc2-n2cccc23)cc(OC)c1OC`, the survival is inactive: 79%.
In the case of `CC(C)(C)c1ccc(CN(Cc2ccco2)c2cnc(S(C)(=O)=O)nc2C(=O)Nc2ccc(F)cc2)cc1`, the survival is inactive: 119%.
As for `Cc1cc(C)c(NC(=O)Cn2c(=O)nc(-c3ccccc3)c3cc(Cl)ccc32)c(C)c1`, the figure is inactive: 70%; as for `Cc1ccccc1CN1c2ccccc2-c2nc(SCC(N)=O)ncc2S1(=O)=O`, inactive: 80%; as for `Cc1cc(=O)n(Cc2cccc(F)c2)c2c1c(C)nn2-c1cccc(F)c1`, inactive: 133%.
As for `CCc1cccc(CC)c1-n1nnc2c(sc3nc(C)cc(C)c32)c1=O`, the figure is inactive: 85%; as for `Clc1ccc(OCc2nc3ccccc3n2Cc2ccccc2)c(Cl)c1`, active: 7%; as for `O=C(CSc1nc(-c2ccc(F)cc2)[nH]c1-c1ccccc1)Nc1ccccc1`, inactive: 70%.
As for `CCc1ccc(-c2nn(CC(=O)Nc3ccccc3C)c3c2cnc2ccc(C)cc23)cc1`, the survival is inactive: 79%.
As for `COc1cc(NC(=O)c2nc3ccccc3nc2N2CCCCC2)cc(OC)c1OC`, the figure is inactive: 82%; as for `Cc1ccc(C)c(NC(=O)c2nn(C)c3c2CS(=O)(=O)c2ccccc2-3)c1`, inactive: 90%.
As for `CC(C)(C)C1CCc2c(sc3nnn(CCOc4ccccc4)c(=O)c23)C1` (stereo unspecified), the survival was inactive: 89%.
As to `COc1cc(/C=C/c2nc(C#N)c(NCCc3ccccc3)o2)cc(OC)c1OC`, the survival was inactive: 64%.
The figure for `Cc1ccc(-c2nn(CC(=O)NC3CCCC3)c3c2cnc2ccccc23)cc1` is inactive: 128%; for `Cc1ccc(C)c(NC(=O)CN2C(=O)c3cccnc3Oc3ccc(C)cc32)c1` it is inactive: 74%; for `Cc1cccc(-c2nnc(SCC(=O)OC(C)C)n2C)c1` it is inactive: 106%.
As for `Cc1cccc(-c2nc(CSCC(=O)NCCc3ccc(Cl)cc3)c(C)o2)c1`, the figure is active: -3%; as for `Cc1ccc(CNC(=O)c2ccc(-c3nc(CS(=O)c4ccccc4)c(C)o3)cc2)cc1` (stereo unspecified), inactive: 79%; as for `CC1CCCN(C(=O)C2CCN(CC3CC=CCC3)CC2)C1` (stereo unspecified), inactive: 106%.
As for `COc1ccc2c(c1)N(C)/C(=C1/SC(=O)N(c3ccccc3)C1=O)S2`, the survival was inactive: 85%.
In the case of `COCCn1ccc2c(OCC(=O)Nc3ccccc3F)cccc2c1=O`, the survival was inactive: 19%.
In the case of `COc1ccccc1NC(=O)C1CCN(C(=O)c2ccccc2)CC1`, the survival is inactive: 94%.
As for `CCOC(=O)N1CCc2c(sc3c2c(=O)n(CCc2ccccc2)c(=O)n3CC(=O)Nc2cccc(C)c2)C1`, the figure is inactive: 82%; as for `O=C(c1cc(-c2ccccc2)on1)N1CCCCC1`, inactive: 113%.
`O=C(Nc1cnc(N2CCC(N3CCCCC3)CC2)c(C(=O)O)c1)c1ccc(Br)cc1`: the survival was inactive: 99%.
`Cc1ccc(CSc2nc3ccc(NC(=O)COc4ccc(F)cc4)cc3s2)cc1`: the survival was inactive: 88%.
As for `CCn1nc(C)c(CCN(C)C(=O)Nc2cc(C)cc(C)c2)c1C`, the figure is inactive: 51%; as for `CCc1ccc(CNC(=O)Cn2c(-c3cccs3)cc3cc(F)ccc32)cc1`, inactive: 136%; as for `COc1ccccc1NC(=O)c1c(NC(=O)Cc2ccccc2)sc2c1CCC(C(C)(C)C)C2` (stereo unspecified), inactive: 102%.
The figure for `COc1ccc(N2CCN(C(C)C(=O)N3CCCC3)CC2)cc1` (stereo unspecified) is inactive: 95%.
The figure for `COc1ccc(-n2c(=O)c3c(c4cc(OC)ccc4n3C)n(Cc3ccc(F)cc3Cl)c2=O)cc1` is inactive: 80%.
On to `Nc1nonc1C(=O)NCCNCc1ccc(Cl)c(Cl)c1`, for which the survival is inactive: 71%.
`Cc1cc(C)nc(-n2nc(C)c3c2NC(=O)CC3c2cc(F)ccc2F)n1` (stereo unspecified): the survival is inactive: 83%.
As for `COc1ccccc1NC(=O)Cn1c(=O)n(Cc2ccccc2)c(=O)c2c3c(sc21)CN(C(C)=O)CC3`, the figure is inactive: 84%; as for `Cc1oc(C)c(C(N)=O)c1C(N)=O`, inactive: 97%.
The figure for `CCn1ccc2c(OCC(=O)NCc3ccc(C)cc3)cccc2c1=O` is inactive: 71%; for `Cn1c(=O)cc(SCC(=O)N2CCN(c3ccccc3F)CC2)c2cc(Cl)ccc21` it is inactive: 62%.
Take `CC(C)Sc1ncc(Cl)c(C(=O)Nc2ccc(S(=O)(=O)Nc3ncccn3)cc2)n1`: the survival was inactive: 90%.
As for `CCNC(=O)C1CCCN1C(=O)OCC(C)C` (stereo unspecified), the figure is inactive: 104%.
The figure for `Cc1ccc(NC(=O)c2cc3c([nH]c2=O)CC(C)(C)CC3=O)c(C)c1` is inactive: 67%; for `COc1ccc(CNC(=O)CSc2n[nH]c(-c3ccc(OC)cc3)n2)cc1` it is active: -6%; for `COc1cc(Cn2c(=O)sc3ccccc32)ccc1OCCC(C)C` it is active: -4%.
As for `CC(C)c1ccc2c(c1)-c1ccccc1S(=O)(=O)N2CC(=O)N1CCCCC1`, the figure is inactive: 85%; as for `Cc1cc(Cl)ccc1OCC(=O)Nc1c(C(=O)c2ccccc2)oc2ccccc12`, inactive: 67%; as for `O=C(CSc1ncc(-c2ccccc2)[nH]1)Nc1cccc(C(F)(F)F)c1`, inactive: 25%.
Consider `Cc1ccccc1-c1nc(CS(=O)(=O)CC(=O)Nc2cc(Cl)cc(Cl)c2)c(C)o1`, for which the survival was inactive: 77%.
In the case of `Cc1ccccc1CCNC(=O)C1CCN(c2nc3ccccc3nc2C(F)(F)F)CC1`, the survival is inactive: 68%.
`COc1cc(CN(C(=O)c2cccc(C)c2)c2ccccn2)cc(OC)c1OC`: the survival was inactive: 82%.
As for `Cc1ccc(-n2c(SCC(=O)NCc3ccccc3)nc3c([nH]c4ccccc43)c2=O)cc1`, the figure is inactive: 69%; as for `CCOc1ccc(C(=O)NCCn2cc(SCC(=O)Nc3ccccc3)c3ccccc32)cc1`, inactive: 98%.
As for `COC(=O)c1cc(NC(=O)c2sc3ncn(Cc4cccc(F)c4)c(=O)c3c2C)cc(C(=O)OC)c1`, the figure is inactive: 73%; as for `COc1ccccc1NC(=O)CCS(=O)(=O)c1cc2c3c(c1)CCN3C(=O)CC2`, inactive: 73%.
For `O=C(NCc1ccccc1Cl)c1cc(=O)[nH]c2ccc(S(=O)(=O)N3CCCCC3)cc12`, the survival is inactive: 83%.
Turning to `CCC1CCCCN1C(=O)c1nn(-c2ccc(OC)cc2)c(=O)c2c1c1ccccc1n2C` (stereo unspecified), the survival was inactive: 128%.
`O=C(O)CN1CCCC1=O`: the survival is inactive: 104%.
As for `Cc1ccc(C)c(N2CCN(C(=O)CCn3c(=O)c4cccn4c4cccnc43)CC2)c1`, the figure is inactive: 68%.
The figure for `COc1ccccc1Nc1nc(-c2ccccc2Cl)c2cc(Br)ccc2n1` is inactive: 119%; for `CC1=C(C(=O)Nc2ccc(Cl)cc2)C(C(C)C)n2nc(SCc3ccc(Cl)cc3)nc2N1` (stereo unspecified) it is inactive: 80%.
The figure for `COC(=O)c1ccc[nH]c1=S` is inactive: 101%.
Take `CCN(Cc1ccccc1)C(=O)CN1C(=O)COc2ccc(S(=O)(=O)N(CC)CC)cc21`: the survival was inactive: 86%.
With `O=C(NCC1CCN(Cc2cccc(Cl)c2)CC1)c1cc2ccc3cccnc3c2[nH]1`, the survival was inactive: 63%.
As for `O=C(Cn1nc(C(F)(F)F)c2c1CCC2)Nc1ccc(Cl)cc1`, the figure is inactive: 72%; as for `COc1ccc(OC)c(CCNC(=O)C2=C(C)C(=O)OC23CCC(C)CC3)c1` (stereo unspecified), inactive: 88%.
The figure for `Cc1cc(C)c2c(CC(=O)Nc3ccc(S(=O)(=O)Nc4ncccn4)cc3)coc2c1` is inactive: 81%; for `CCOc1nc(NC(C)C)nc(NC(C)C)n1` it is inactive: 99%.
As for `CCc1cccc(C)c1NC(=O)Cn1ccn(Cc2ccc(Cl)cc2)c(=O)c1=O`, the figure is inactive: 82%; as for `COc1ccc(NC(=O)CN(C)S(=O)(=O)c2cnc[nH]2)cc1Cl`, inactive: 75%.
`Cc1ccc(-c2[nH]c(-c3ccccc3)nc2SCC(=O)NCC2CCCO2)cc1` (stereo unspecified): the survival was inactive: 81%.
As for `CC1CN(C(=O)C(C)Sc2nc(-c3ccccc3)cc(C(F)(F)F)n2)CC(C)O1` (stereo unspecified), the figure is inactive: 101%; as for `COc1ccc(-c2noc(COc3ccc(Br)cc3C)n2)cc1OC`, active: 11%; as for `c1ccc(-c2nnc(CN3CCN(c4ccccc4)CC3)o2)cc1`, inactive: 83%.
The figure for `O=C(NCC1CCCO1)c1ccc(NC(=O)c2ncn[nH]2)cc1` (stereo unspecified) is inactive: 98%.
As for `Cc1ccc2c(c1C)NC(=O)CC2c1ccc(Cl)cc1Cl` (stereo unspecified), the figure is active: 1%; as for `Cn1c(C(O)c2ccccc2)n[nH]c1=S` (stereo unspecified), inactive: 118%; as for `CCc1ccc(OCC(=O)Nc2ccc(-c3nc4ncccc4o3)cc2)cc1`, inactive: 81%.
`O=C(CN1CCC(n2nnc3cc(F)ccc32)CC1)N1CCCc2ccccc21`: the survival is inactive: 103%.
The figure for `O=C(O)c1ccc(NC(=O)c2cn(-c3ccccc3)nc2-c2ccc(Br)cc2)cc1` is inactive: 32%.
Regarding `O=C(CC1N=C2c3ccccc3N=C(SCc3cccc(F)c3)N2C1=O)NCc1ccc2c(c1)OCO2` (stereo unspecified), the survival was inactive: 113%.
The figure for `Cc1ccc(OCC(=O)Nc2cccc(C(=O)OCc3cc(=O)n4nc(C)sc4n3)c2)cc1` is inactive: 74%; for `Cc1ccc2c(c1)nnn2C1CCN(CC(=O)N2c3ccccc3CC2C)CC1` (stereo unspecified) it is inactive: 109%; for `COc1cccc(CNC(=O)C(=O)Nc2ccc3nc4n(c(=O)c3c2)CCCCC4)c1` it is inactive: 93%.
